Laboratory results as given in the supplement of paper PMC10441789.
The other results are listed elsewhere or left out. Antibody binding of pooled human sera (four to six donors per pool; dilution not stated) to peptides of the Trypanosoma cruzi antigen TSSA on microarrays. Quantile-normalised fluorescence in arbitrary units, mean of duplicate arrays; higher = more binding. No active / inactive call. The uninfected pools are read here as the healthy donors of the same country. The strongest signals lie near the top of the scale (about 60,000).

Key:
Experiment in all cases: antibody binding signal (normalised fluorescence) (arbitrary fluorescence units); higher = stronger serum antibody binding to peptide
[1] = test system: pooled sera of chronic Chagas disease patients, Argentina
Method: (§1)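 Microarray of 15-residue peptides over residues 30-55 of Trypanosoma cruzi TSSAII, each with 1 to 10 substitutions at naturally variable positions, probed with one serum pool per country.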

[2] = test system: pooled sera of chronic Chagas disease patients, Bolivia
Method: as §1

[3] = test system: pooled sera of chronic Chagas disease patients, Brazil
Method: as §1

[4] = test system: pooled sera of chronic Chagas disease patients, Colombia
Method: as §1

[5] = test system: pooled sera of chronic Chagas disease patients, Mexico
Method: as §1

[6] = test system: pooled sera of chronic Chagas disease patients, USA
Method: as §1

[7] = test system: pooled sera of uninfected people, Argentina
Method: as §1

[8] = test system: pooled sera of uninfected people, Bolivia
Method: as §1

[9] = test system: pooled sera of uninfected people, Brazil
Method: as §1

[10] = test system: pooled sera of uninfected people, Colombia
Method: as §1

[11] = test system: pooled sera of uninfected people, Mexico
Method: as §1

[12] = test system: pooled sera of uninfected people, USA
Method: as §1

Sequence	antibody binding signal [1]	antibody binding signal [2]	antibody binding signal [3]	antibody binding signal [4]	antibody binding signal [5]	antibody binding signal [6]	antibody binding signal [7]	antibody binding signal [8]	antibody binding signal [9]	antibody binding signal [10]	antibody binding signal [11]	antibody binding signal [12]
KTATGEAPSPPGASS	11900	29700	12900	288	790	15700	311	148	268	153	117	182
KKTAAGGAPSPPGAS	182	220	191	4330	430	533	256	141	141	272	104	252
SGTDNKTATGGTPSQ	583	933	44300	636	459	389	297	751	2010	170	216	306
GTENKPATGGTPSPS	43700	8000	7410	423	1670	816	430	1830	882	523	287	167
SGKDKKTATGGTPSQ	851	684	428	1420	962	1660	211	96.9	113	191	135	119
TPPSGTDKKPATGGA	31200	17700	43900	11000	37400	5720	1280	1310	308	340	3570	787
DNKAATGGAPSQPGA	777	3850	25000	636	460	1820	381	224	411	289	401	244
GTEKKTATGGAPSQP	2140	299	1600	2530	1390	1270	361	634	139	109	232	151
STPPSGKDKKPAAGE	25300	4640	14700	331	48300	4390	1300	346	124	316	121	109
SSTPPSGKDKKTAAG	6540	628	624	548	31800	541	125	233	111	137	95.1	159
EKKPAAGGTPSQPGA	674	263	828	5740	357	1240	317	838	3190	236	360	949
NKAAAGEAPSPPGAS	491	1480	25500	391	183	10200	546	1130	296	598	248	1180
TDNKPAAGGAPSPPG	1120	798	3650	1350	262	942	181	299	309	224	304	131
GKENKPATGEAPSPS	50300	40100	49700	6570	7920	44500	1520	932	299	251	444	149
GTENKAAAGEAPSQP	39600	23600	27100	2670	2730	12800	111	463	130	130	92.9	110
DNKAAAGEAPSQSGA	628	23300	27200	177	172	13800	95.6	342	180	93.5	224	111
PSGTDKKPAAGGTPS	3330	1010	26800	14500	4210	3490	205	652	1150	289	1680	280
KDNKAATGETPSQSG	3230	728	19800	194	328	11300	328	931	191	210	214	103
TENKAATGGTPSPPG	33900	1100	338	408	428	232	160	126	372	318	154	183
TPPSGTENKTAAGET	39900	38600	44400	159	1860	16900	1820	286	375	349	273	235
